Measurements published in PMC4117426.
These are yes or no findings as the source states them, for the method shown. Some results given as binding are weak or reduced against the parent protein; the word gives no strength. Where a sequence is shown, tags or fusion partners need not be part of it.

T1: 6×His-SlmA (E. coli), P0C093
T1 chain: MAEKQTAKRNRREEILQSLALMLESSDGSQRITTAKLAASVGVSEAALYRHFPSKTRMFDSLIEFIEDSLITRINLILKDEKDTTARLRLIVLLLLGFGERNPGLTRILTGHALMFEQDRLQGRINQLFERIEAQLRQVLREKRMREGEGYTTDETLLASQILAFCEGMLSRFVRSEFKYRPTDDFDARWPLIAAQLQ

T2: 6×His-FtsZ360 (E. coli), P0A9A6
T2 chain: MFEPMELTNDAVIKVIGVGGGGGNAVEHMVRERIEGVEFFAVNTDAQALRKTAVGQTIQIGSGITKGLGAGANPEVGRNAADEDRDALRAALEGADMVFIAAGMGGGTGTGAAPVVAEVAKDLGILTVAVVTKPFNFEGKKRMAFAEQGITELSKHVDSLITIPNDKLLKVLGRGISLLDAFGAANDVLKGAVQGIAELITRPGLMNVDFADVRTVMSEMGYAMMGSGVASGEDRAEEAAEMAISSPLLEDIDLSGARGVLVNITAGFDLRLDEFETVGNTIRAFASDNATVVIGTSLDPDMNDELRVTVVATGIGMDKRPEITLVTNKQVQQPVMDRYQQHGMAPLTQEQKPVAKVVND


How the values were obtained:
[1] = target: T1, 6×His-SlmA (E. coli), P0C093; test: BLI; biotinylated SBS17-30mer (50 nM) on streptavidin tips, loaded with 4 µM SlmA or SlmA mutant; FtsZ or variants (4 µM, preincubated with 1 mM GDP) or peptides (up to 320 µM) in solution; 1× Pol buffer, room temperature; both purified; details: remark: other sources report otherwise
FtsZ (E. coli) = FtsZ (E. coli) (UniProt P0A9A6); test: co-sedimentation; stable FtsZ polymers formed with GMPCPP (1 mM); proteins 5 µM, SBS17-30mer DNA 2 µM; Pol buffer (50 mM HEPES-NaOH pH 8.0, 200 mM KCl, 10 mM MgCl2); 80,000 rpm 15 min 25°C; supernatant and pellet by SDS-PAGE; both purified
[2] = target: T2, 6×His-FtsZ360 (E. coli), P0A9A6; test: as above; details: remark: other sources report otherwise

Binder | binding [1] | binding (FtsZ (E. coli)) | other results
6×His-FtsZ360, P0A9A6 1-360 (domain or fragment) MFEPMELTNDAVIKVIGVGGGGGNAVEHMVRERIEGVEFFAVNTDAQALRKTAVGQTIQIGSGITKGLGAGANPEVGRNAADEDRDALRAALEGADMVFIAAGMGGGTGTGAAPVVAEVAKDLGILTVAVVTKPFNFEGKKRMAFAEQGITELSKHVDSLITIPNDKLLKVLGRGISLLDAFGAANDVLKGAVQGIAELITRPGLMNVDFADVRTVMSEMGYAMMGSGVASGEDRAEEAAEMAISSPLLEDIDLSGARGVLVNITAGFDLRLDEFETVGNTIRAFASDNATVVIGTSLDPDMNDELRVTVVATGIGMDKRPEITLVTNKQVQQPVMDRYQQHGMAPLTQEQKPVAKVVND | no binding (tested: 4 µM) | – | –
6×His-SlmA (protein, UniProt P0C093 1-198) MAEKQTAKRNRREEILQSLALMLESSDGSQRITTAKLAASVGVSEAALYRHFPSKTRMFDSLIEFIEDSLITRINLILKDEKDTTARLRLIVLLLLGFGERNPGLTRILTGHALMFEQDRLQGRINQLFERIEAQLRQVLREKRMREGEGYTTDETLLASQILAFCEGMLSRFVRSEFKYRPTDDFDARWPLIAAQLQ | – | binds | –
6×His-SlmA, P0C093 1-198 (protein) MAEKQTAKRNRREEILQSLALMLESSDGSQRITTAKLAASVGVSEAALYRHFPSKTRMFDSLIEFIEDSLITRINLILKDEKDTTARLRLIVLLLLGFGERNPGLTRILTGHALMFEQDRLQGRINQLFERIEAQLRQVLREKRMREGEGYTTDETLLASQILAFCEGMLSRFVRSEFKYRPTDDFDARWPLIAAQLQ | – | – | binding [2]: no binding (tested: 5 µM)

More lines, main results first:

binding [1] | binding (FtsZ (E. coli)) | Binder | other results
no binding (tested: 4 µM) | – | FtsZ360, P0A9A6 1-360 (domain or fragment) MFEPMELTNDAVIKVIGVGGGGGNAVEHMVRERIEGVEFFAVNTDAQALRKTAVGQTIQIGSGITKGLGAGANPEVGRNAADEDRDALRAALEGADMVFIAAGMGGGTGTGAAPVVAEVAKDLGILTVAVVTKPFNFEGKKRMAFAEQGITELSKHVDSLITIPNDKLLKVLGRGISLLDAFGAANDVLKGAVQGIAELITRPGLMNVDFADVRTVMSEMGYAMMGSGVASGEDRAEEAAEMAISSPLLEDIDLSGARGVLVNITAGFDLRLDEFETVGNTIRAFASDNATVVIGTSLDPDMNDELRVTVVATGIGMDKRPEITLVTNKQVQQPVMDRYQQHGMAPLTQEQKPVAKVVND | –
– | no binding (tested: 5 µM) | 6×His-SlmA-R73D (protein, UniProt P0C093 1-198) MAEKQTAKRNRREEILQSLALMLESSDGSQRITTAKLAASVGVSEAALYRHFPSKTRMFDSLIEFIEDSLITDINLILKDEKDTTARLRLIVLLLLGFGERNPGLTRILTGHALMFEQDRLQGRINQLFERIEAQLRQVLREKRMREGEGYTTDETLLASQILAFCEGMLSRFVRSEFKYRPTDDFDARWPLIAAQLQ | –
